Measurements as given in article PMC11211441, “Distributable, metabolic PET reporting of tuberculosis” (Nature Communications, 2024).

Columns and labels:
OtsA = OtsA expressed from E. coli; cited from earlier work
OtsB^Sf = OtsB^Sf (Escherichia coli, UniProt P31678); test: OtsB^Sf enzyme kinetics (1H NMR); details: enzyme expressed from Spodoptera frugiperda; continuous 1H NMR assay, 37 °C
OtsB = OtsB (Escherichia coli, UniProt P31678); test: OtsB enzyme kinetics (enzyme expressed in E. coli); details: continuous 1H NMR assay, 37 °C
[1] = In vivo metabolism of 18F-labeled trehalose analogs in rabbits; details: for % 2-FDT: rabbits
[2] = system: Mtb-infected marmoset lung lesions; test: PET/CT imaging of tracer uptake in marmoset TB model; assay type: in vivo
[3] = system: Mtb (strain Erdman) lesions; test: PET/CT imaging in Mtb-infected cynomolgus macaques; assay type: in vivo; details: 120 min
[4] = Dynamic PET biodistribution and dosimetry in naive rhesus macaque; assay type: in vivo
[5] = Biodistribution by gamma counting in Mtb-infected marmosets; assay type: in vivo, marmoset; details: two Mtb-infected marmosets, 74 MBq/kg, 120 min post-injection
[6] = Single and repeat iv dose toxicity study in rats; details: both sexes, rat, in vivo, Sprague Dawley rats
[7] = Single and repeat iv dose toxicity study in dogs; details: both sexes, dog, in vivo, beagle dogs
[8] = rhesus data extrapolated to humans

Sequence of UniProt P31678 (P31678 whole entry): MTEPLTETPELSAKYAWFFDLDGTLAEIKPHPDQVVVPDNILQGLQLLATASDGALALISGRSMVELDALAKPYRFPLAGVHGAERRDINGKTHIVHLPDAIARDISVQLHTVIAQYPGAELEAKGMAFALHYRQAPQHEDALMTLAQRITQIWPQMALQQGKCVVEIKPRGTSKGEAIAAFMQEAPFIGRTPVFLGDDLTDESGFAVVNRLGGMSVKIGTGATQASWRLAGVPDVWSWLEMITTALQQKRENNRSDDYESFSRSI

SMILES: O=C[C@H](O)[C@@H](O)[C@H](O)[C@H](O)COP(=O)(O)O [G6P, Glucose-6-phosphate]
- Km (OtsA): 7.3 ± 0.6 mM
- kcat (OtsA): 34 ± 1 s⁻¹

SMILES: O=P(O)(O)OC[C@H]1O[C@H](O[C@H]2O[C@H](CO)[C@@H](O)[C@H](O)[C@H]2O)[C@H](O)[C@@H](O)[C@@H]1O [T6P, trehalose-6-phosphate]
- Km (OtsB^Sf): 2.8 ± 0.7 mM
- kcat (OtsB^Sf): 740 ± 96 s⁻¹
- Km (OtsB): 3.6 ± 0.8 mM
- kcat (OtsB): 286 ± 34 s⁻¹

SMILES: OC[C@H]1O[C@H](O[C@H]2O[C@H](CO)[C@@H](O)[C@H](O)[C@H]2[18F])[C@H](O)[C@@H](O)[C@@H]1O [[^18F]FDT, 2-[^18F]fluoro-2-deoxytrehalose]
- degradation in vivo ([1]; Mtb-infected and naive rabbits): little apparent degradation
- radiochemical purity maintained ([1]; blood and urine of rabbits): > 95%
- % 2-FDT ([1]; 50 min (Fig. S3E)): 98.5%
- % 2-FDT ([1]; 115 min (Fig. S3E)): 94.6%
- % 2-FDT ([1]; urine (120 min) (Fig. S3E)): 95.8%
- labeling intensity relative to [18F]FDG ([2]; Mtb-infected marmosets): about half
- reduction of average uptake of [18F]FDT into lesions by pre-blocking ([2]; cold [19F]FDT administered 1 h and 5 min prior to radiotracer, infected marmosets): 40%
- reduction in SUV signal during treatment ([2]; marmosets, 4 weeks HRZE, mean ± SD): 33 ± 13%
- signal in lung of naive marmoset ([2]; naive vs ~45-day Mtb-infected marmoset): low background signal
- uptake in lesions with culturable mycobacteria vs sterile lesions [3]: significantly higher
- difference in exposure vs FDG ([4]; bladder wall, kidneys, adrenals): 2-to-5 fold
- distribution / excretion ([4]; healthy rhesus macaque, 151 MBq iv, ~115 min dynamic PET): prominent accumulation of radioactivity in kidney and urinary bladder
- effective dose [4, 8]: 0.0154 mSv/MBq
- organ radiation absorbed dose, kidneys [4, 8]: 0.119 mSv/MBq
- tissue uptake of the radiotracer [5]: little tissue uptake of the radiotracer in organs other than in kidney

SMILES: OC[C@H]1O[C@H](O[C@H]2O[C@H](CO)[C@@H](O)[C@H](O)[C@H]2F)[C@H](O)[C@@H](O)[C@@H]1O [[^19F]FDT]
- NOAEL at 7 days ([6]; 1.32 mg/kg/day, daily IV administration for 7 consecutive days): ≥ 1.32 mg/kg/day
- NOAEL ([6]; single IV injection): ≥ 13.2 mg/kg
- NOAEL at 7 days ([7]; 0.4 mg/kg/day, daily IV administration for 7 consecutive days): ≥ 0.4 mg/kg/day
- NOAEL ([7]; single IV injection): ≥ 4 mg/kg
